Source: PMC4336329 (PLoS ONE, 2015)
In all, about 310,000 compounds went through this assay and about 2,200 (0.71%) showed an effect of 50% or more. Effects have a minus sign here. The list shows a part of the results.

Biological target: human ether-à-go-go-related gene (hERG) potassium channel (human, UniProt Q12809)
Assay: primary screen, population patch clamp on CHO cells stably expressing hERG

Chain of human ether-à-go-go-related gene (hERG) potassium channel (Q12809 whole entry, looked up): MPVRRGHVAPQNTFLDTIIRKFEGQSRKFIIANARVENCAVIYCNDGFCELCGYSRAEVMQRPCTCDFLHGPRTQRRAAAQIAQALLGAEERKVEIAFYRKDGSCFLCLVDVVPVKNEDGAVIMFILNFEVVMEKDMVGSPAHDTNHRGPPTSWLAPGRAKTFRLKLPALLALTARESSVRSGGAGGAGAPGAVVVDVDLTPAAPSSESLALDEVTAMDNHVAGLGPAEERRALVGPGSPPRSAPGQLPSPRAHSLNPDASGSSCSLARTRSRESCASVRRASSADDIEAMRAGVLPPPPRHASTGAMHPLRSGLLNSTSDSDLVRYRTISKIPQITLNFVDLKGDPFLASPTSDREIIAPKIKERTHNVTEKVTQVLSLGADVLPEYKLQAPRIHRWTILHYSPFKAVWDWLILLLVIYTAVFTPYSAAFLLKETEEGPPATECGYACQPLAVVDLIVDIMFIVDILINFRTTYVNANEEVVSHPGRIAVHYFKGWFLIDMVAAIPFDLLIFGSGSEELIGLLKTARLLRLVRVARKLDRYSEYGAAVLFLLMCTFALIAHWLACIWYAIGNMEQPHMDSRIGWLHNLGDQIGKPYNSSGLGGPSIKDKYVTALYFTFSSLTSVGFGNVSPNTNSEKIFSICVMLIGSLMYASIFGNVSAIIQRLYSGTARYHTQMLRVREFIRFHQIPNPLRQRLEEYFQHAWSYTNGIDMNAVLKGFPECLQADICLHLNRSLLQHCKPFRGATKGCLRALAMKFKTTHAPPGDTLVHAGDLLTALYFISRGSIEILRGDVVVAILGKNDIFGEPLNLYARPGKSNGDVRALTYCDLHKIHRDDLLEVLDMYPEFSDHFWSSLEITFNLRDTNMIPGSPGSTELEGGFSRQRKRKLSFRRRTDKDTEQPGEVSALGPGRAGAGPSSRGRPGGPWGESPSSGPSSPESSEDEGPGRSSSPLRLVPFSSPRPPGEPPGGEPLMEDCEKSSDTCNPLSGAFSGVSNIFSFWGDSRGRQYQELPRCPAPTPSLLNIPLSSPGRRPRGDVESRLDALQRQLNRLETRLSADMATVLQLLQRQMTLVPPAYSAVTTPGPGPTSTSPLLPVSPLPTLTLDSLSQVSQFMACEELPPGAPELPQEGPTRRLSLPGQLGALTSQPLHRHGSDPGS

Row | Compound | hERG current change (%, negative = inhibition) at 1uM [%]
1 | O=C(CN1CCN(Cc2ccccc2Cl)CC1)N/N=C/C=C\c1ccccc1[N+](=O)[O-] | -12.3
2 | CN(C)/C=C/C(=O)/C=C/c1ccc(Cl)cc1 | 12.2
3 | N#C/C(=N\Nc1ccccc1Cl)C(=O)c1ccccc1 | 24.3
4 | Cc1ccc(P(=O)(CSC(=N)N)c2ccc(C)cc2)cc1.Cl | 0.713
5 | CCCC(O)(c1ccc(CC)cc1)C(CN1CCOCC1)c1ccccc1.Cl (stereo not shown) | 18.3
6 | Cc1ccc(NC(=O)c2cc(S(=O)(=O)N3CCOCC3)cn2C)c(C)c1 | 5.42
7 | COc1cccc(CNc2ncc(-c3ccccc3)n2C)c1 | -6.74
8 | CCOc1ccc(CN2CCNC(=O)C2CC(=O)NCc2cc(C)n(C)n2)cc1 (stereo not shown) | 7.33
9 | Cc1cc(C)nc(NC(=O)c2cccc(Br)c2)n1 | 15
10 | CC(=O)c1c(C)[nH]c(C(=O)N2CCN(S(=O)(=O)c3ccc(F)c(F)c3)CC2)c1C | 7.42
11 | CCOC(=O)[C@H]1[C@H]2COc3ccc(C)cc3[C@@H]2N2C(=O)[C@@H](C)NC(=O)[C@@]12C | 14
12 | COc1cc(/C=C2/CC/C(=C/c3ccc(O)c(OC)c3)C2=O)ccc1O | -2.14
13 | COc1ccnc(-n2cccc2C=O)c1C#N | 6.53
14 | OCC1(CO)COC(/C=C/c2ccccc2)=N1 | 4.78
15 | CS(=O)(=O)Nc1nnc(SCC(=O)N(c2ccccc2)c2ccccc2)s1 | 12.9
16 | COCC(=O)Nc1nc2ccccc2s1 | 6.47
17 | COc1cccc(CCNS(=O)(=O)CCNC(=O)c2cccc(OC)c2)c1 | 11.9
18 | CCOc1cc(/C=N/NS(=O)(=O)c2ccc(OC)cc2)ccc1OCCN1CCOCC1 | -1.67
19 | CC(C)CC(=O)C(=O)[O-].[Na+] | 8.28
20 | CCOc1c(Br)cc(C2NS(=O)(=O)N=C3CCCCCN32)cc1OC (stereo not shown) | 17.9
21 | COc1ccc(C)cc1N(CC(=O)NC1CCCC1)C(=O)CCC(=O)Nc1cc(C)on1 | 10.1
22 | COc1ccc(-c2nc3ccccn3c2C=O)cc1 | 7.35
23 | Cc1ccc(NC(=O)CS(=O)CC(=O)Nc2cccc(C)c2C)cc1F (stereo not shown) | 9.44

Row | Compound | hERG current change (%, negative = inhibition) at 1uM [%]
24 | O=C1c2ccccc2C(=O)N1CCCc1nc(-c2cccnc2)no1 | -2.02
25 | Cc1ccc(C(=O)NNC(=O)c2cccc(C)c2)cc1 | 12.7
26 | O=C(NCc1ccco1)C1(S(=O)(=O)c2ccccc2)CC=CC1 | 13.1
27 | O=C(/C=C/Nc1ccc(Br)cn1)c1cccc(OC(F)F)c1 | 6.6
28 | CCCc1cc(=O)oc2cc(C)cc(OC(=O)c3ccco3)c12 | 15
29 | O=C(Nc1ccc(N2CCOCC2)c(Cl)c1)c1ccccc1Cl | 18.1
30 | CCCCP(=O)(CCCC)CCP(=O)(c1ccccc1)c1ccccc1 | 8.94
31 | CC(=O)N1CCC(N(CCCOC(C)C)C(=O)Nc2ccc(Cl)cc2)CC1 | 2.48
32 | COc1ccccc1NC(=O)CSc1nnc(Cn2c(=O)sc3ccccc32)n1C | -19
33 | COc1ccc(C2=C(C#N)C(=O)OC2)cc1 | -1.67
34 | CC(C)C(NC(=O)c1ccccc1F)C(=O)OCC(=O)c1ccc(F)cc1 (stereo not shown) | 4.29
35 | CCC1=Nc2cc(C(=O)NCCN3CCOCC3)ccc2Sc2ccc(C)cc21 | -14.1
36 | Cc1ccc(S(=O)(=O)N2CCC(C(=O)N[C@H](C(=O)NC3CCS(=O)(=O)C3)C(C)C)CC2)cc1 (stereo partly shown) | 16.5
37 | COC(=O)c1cc(=O)n2c(-c3ccc(OC)cc3)csc2n1 | 9.02
38 | COC(=O)c1ccccc1S(=O)(=O)Nc1ccc2cn[nH]c2c1 | 11.7
39 | CCOC(=O)c1ccc(NC(=S)N2CCSC2c2ccc(Cl)cc2)cc1 (stereo not shown) | 14.5
40 | CN(C(=O)Nc1cnccc1C(F)(F)F)C1CCCCC1 | 20.4
41 | Cc1nnc(SCc2cc(=O)oc3cc(O)ccc23)n1Cc1ccccc1 | -0.332
42 | CC(C)N(C(=O)CN1CCC(c2nc3ccccc3[nH]2)CC1)C(C)C | 6.76
43 | O=[N+]([O-])c1ccc(N2CCOCC2)cc1N1CCCCC1 | 6.72
44 | COCCNCCCCOc1ccc(C)cc1[N+](=O)[O-].O=C(O)C(=O)O | 1.99
45 | COCCCN1CN(S(=O)(=O)c2ccc(C)cc2C)c2nc3ccccc3nc21 | 17.3
46 | COc1cc(OC)c(C(=O)O/N=C(\N)c2ccc(C)cc2)cc1OC | 0.289

Row | Compound | hERG current change (%, negative = inhibition) at 1uM [%]
47 | CCCC1=NN(C(=O)Cc2ccc([N+](=O)[O-])cc2)C(O)(C(F)(F)F)C1 (stereo not shown) | 17.2
48 | CCOC(=O)Cc1csc(NC(=S)NC(=O)c2cc(OC)cc(OC)c2)n1 | 8.5
49 | C=CCn1cccc(C(=O)Nc2ccc(C)cc2)c1=O | -0.584
50 | CN1CCN(C(=O)CCc2nc(-c3ccc(Cl)cc3)no2)CC1 | 7.34
51 | O=C(CCC(=O)c1ccc(Br)cc1)Nc1cccc(C(F)(F)F)c1 | 11.8
52 | COc1ccc(-c2nn3c(-c4ccccn4)nnc3s2)cc1OC | 18.3
53 | Cc1cccc(Nc2ncnc3ccccc23)c1.Cl | 8.31
54 | O=C(CN1C(=O)NC2(CCCC2)C1=O)N1CCN(C(=O)c2ccco2)CC1 | 6.64
55 | C/C(=C\C(=O)c1ccccc1)Nc1ccc(O)cc1 | 13
56 | COc1ccc(-c2cc(C(=O)N(C)Cc3ccc(F)cc3)c3ccccc3n2)cc1OC | 19.9
57 | CCOc1ccc(S(=O)(=O)N2CCOCC2)cc1NC(=O)Cc1c(F)cccc1Cl | 12.7
58 | c1ccc2c(CN3CCOCC3)c3ccccc3c(CN3CCOCC3)c2c1 | 17.3
59 | COc1ccc(C(=O)COC(=O)c2ccccn2)cc1OC | 5.63
60 | CCCNC(=O)Cc1c(C)oc2ccccc12 | 7.97
61 | OCC#CCSc1nnc(-c2ccc(Br)cc2)o1 | 5.91
62 | CC(=O)Nc1ccc(NC(=O)C(C)OC(=O)c2ccc(N(C)C)cc2)cc1 (stereo not shown) | 17.4
63 | CCOC(=O)c1ccc(NC(=O)/C=C/c2cccs2)cc1 | 6.07
64 | COc1ccc(-c2nc(C(F)(F)F)c(OC)o2)cc1OC | 14.6
65 | On1nnc2ccc(C(F)(F)F)cc21 | 16.8
66 | CCCCc1cc(=O)oc2cc(C)cc(OCc3nn[nH]n3)c12 | 0.321
67 | O=C(Nc1ccc2oc(-c3ccccc3Cl)nc2c1)c1cncc(Br)c1 | -4.62
68 | Cn1cc(CCC(=O)N2CCCC(C(=O)c3ccc(C(C)(C)C)cc3)C2)cn1 (stereo not shown) | -7.59
69 | O=C(c1c[nH]c2ccc(S(=O)(=O)N3CCC4(CC3)OCCO4)cc2c1=O)N1CCC2(CC1)OCCO2 | 7.15

Row | Compound | hERG current change (%, negative = inhibition) at 1uM [%]
70 | Cn1c(N)c(C(c2ccccc2)c2c(N)n(C)c(=O)n(C)c2=O)c(=O)n(C)c1=O | 1.37
71 | COc1ccc(N2CCN(Cc3cc(=O)oc4cc(-c5ccccc5)c(O)cc34)CC2)cc1 | 7.08
72 | Cc1ccc(-c2nc3ccccc3[nH]2)cn1 | 15.7
73 | CN(C)N(C(=O)c1cc(-c2cccs2)nn1-c1ccccc1)C1CCS(=O)(=O)C1 (stereo not shown) | 8.14
74 | O=C(Nc1ccccc1-c1ccccc1)C1CCC1 | 16.6
75 | Cc1cc(N2CCN(C)CC2)nc(=S)[nH]1 | 10.6
76 | COC(=O)Cc1c(C)c2ccc(OCC(=O)N3CCC(C)CC3)c(C)c2oc1=O | 1.92
77 | Nc1ccccc1OCCOc1ccccc1N | 9.18
78 | Cn1c(=O)n(C)c2cc(NS(=O)(=O)c3ccc(C(C)(C)C)cc3)ccc21 | 10.2
79 | CCOC(=O)c1ccn(CSc2c(F)c(F)cc(F)c2F)n1 | 7.48
80 | CCN(CC)C(=O)c1cc2c(=O)n3cccc(C)c3nc2s1 | 16.4
81 | NC(=O)C1CCN(C(=O)CN(c2cccc(Cl)c2)S(=O)(=O)c2ccccc2)CC1 | 13.7
82 | CCCc1ncc(C(O)(c2ccccc2)c2ccc(C)cc2)n1C (stereo not shown) | 8.82
83 | Cc1nc2cc(-c3ccccc3)ccc2o1 | 4.59
84 | CCCNC(=O)c1onc(CSc2ccc(F)cc2)c1C(=O)NCC1CC1 | -4.01
85 | O=C(c1ccc(N2CCCCC2)c([N+](=O)[O-])c1)N1CCN(S(=O)(=O)c2ccccc2)CC1 | -18
86 | CN(CC(=O)Nc1ccccc1Cl)C(=O)COC(=O)c1ccccc1[N+](=O)[O-] | 6.6
87 | CCN(CC)CCn1c(=S)[nH]c2ccccc2c1=O | -2.59
88 | CCOC(=O)Cn1cc([N+](=O)[O-])c(OC)n1 | 12.2
89 | Cc1ccccc1/C=C/c1cccc[n+]1C.[I-] | 17
90 | O=C(COC(=O)CCNS(=O)(=O)c1ccccc1F)Nc1nnc(-c2ccccc2)o1 | 8.19
91 | C=CCNC(=O)c1ccccc1NC(=O)c1cccc2ccccc12 | 16
